# Experimental data taken from the BET-seq Pho4 binding data (Le et al. 2018).
# This is one part of the list. These are noisy estimates, calculated here from bound and input reads.
# Biological target: T1, Pho4 (S. cerevisiae) (UniProt P07270)
# T1 sequence: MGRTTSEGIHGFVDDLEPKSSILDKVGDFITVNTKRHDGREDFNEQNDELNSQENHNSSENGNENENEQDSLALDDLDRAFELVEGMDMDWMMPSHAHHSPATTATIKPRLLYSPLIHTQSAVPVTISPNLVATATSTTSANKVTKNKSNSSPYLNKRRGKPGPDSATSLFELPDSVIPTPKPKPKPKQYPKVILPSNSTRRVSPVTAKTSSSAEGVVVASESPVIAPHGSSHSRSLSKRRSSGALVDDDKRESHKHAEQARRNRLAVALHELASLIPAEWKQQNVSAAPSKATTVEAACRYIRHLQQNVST
# Experiment: relative binding free energy (BET-seq); higher = weaker binding
# Details: reference: library average
row,Sequence,relative binding free energy [kcal/mol]
1,GTCGACACGTGTGGTA,0.13
2,TATCGCACGTGGAGGG,-0.09
3,TTTCGCACGTGATGCT,0.15
4,GTGTACACGTGGAGAT,0.08
5,GATGTCACGTGCGGTA,0.08
6,TTTTGCACGTGAAGGG,0.31
7,GGTAGCACGTGTATGG,0.07
8,GTTTTCACGTGTGTGG,0.42
9,AAATTCACGTGGGGCG,0.09
10,ATATTCACGTGATTTT,0.2
11,GGCTTCACGTGGGGGT,0.22
12,TTATTCACGTGGTCCT,0.22
13,AGGGTCACGTGAGATC,0.49
14,AGTGTCACGTGGCATC,0.12
15,ATTCTCACGTGCGGTT,0.26
16,GATTACACGTGGCGGG,-0.04
17,TGGGTCACGTGTCGAC,0.31
18,AATATCACGTGGAAGT,0.11
19,AGAGTCACGTGTGTTG,0.09
20,GGATACACGTGTGGTG,0.03
21,AGGAGCACGTGTAGAT,0.21
22,AGGTACACGTGTTGTT,0.21
23,TCAAGCACGTGTGTGT,0.01

row,Sequence,relative binding free energy [kcal/mol]
1,GGGGTCACGTGTAGTT,0.24
2,TACTTCACGTGGGTTT,0.19
3,GTTGACACGTGGGTGC,-0.25
4,GGAAGCACGTGGTGGC,-0.15
5,AGGGTCACGTGGCAAG,0.08
6,TTATACACGTGAGAGT,0.24
7,GGAGGCACGTGGACAG,-0.06
8,AGTCGCACGTGTTTTT,0.03
9,AAGTCCACGTGGTGGT,-0.03
10,TTAATCACGTGTAGAG,0.11
11,TTGGGCACGTGGCCGA,-0.15
12,TTTGCCACGTGGTTAT,-0.04
13,GGACGCACGTGGCGGG,-0.15
14,GGAGTCACGTGAGGCT,0.37
15,TTAATCACGTGCATTG,0.16
16,ATATGCACGTGGTTTC,-0.1
17,GATTACACGTGGTGTC,0.1
18,GCGGGCACGTGGTGGC,-0.17
19,TGAGCCACGTGGCGGG,-0.27
20,GTGCTCACGTGGGGAG,0.1
21,TTTGACACGTGTCTGT,0.04
22,TTCGACACGTGGGTGC,-0.06
23,AAGTGCACGTGCTGTT,-0.14

row,Sequence,relative binding free energy [kcal/mol]
1,AAGTTCACGTGGGAGT,0.27
2,GGTTTCACGTGAAGCT,0.4
3,GGGGTCACGTGGCAAG,-0.04
4,CGGGGCACGTGAGTGA,0.07
5,TAGGGCACGTGTACTT,-0.06
6,TAGTTCACGTGTGAAA,0.15
7,TGAGACACGTGATGTT,0.11
8,CATGGCACGTGTCTGT,0
9,GAAGGCACGTGGGGGC,-0.07
10,GATTTCACGTGAAGGC,0.55
11,CTTTGCACGTGATATT,0.01
12,TGAAGCACGTGGGATT,-0.11
13,TTGGGCACGTGTGTCC,0
14,TGTTCCACGTGGGCGT,-0.14
15,TATGTCACGTGATTGC,0.15
16,ATAGTCACGTGAGGAT,0.31
17,CGGTCCACGTGGTGGG,-0.14
18,TGATTCACGTGGTTCG,0.26
19,TTTCGCACGTGATGGC,0.13
20,GAGATCACGTGGTGGG,0.14
21,TGTTACACGTGACTGT,0.23
22,TTATTCACGTGAAGCG,0.24
23,ATTGTCACGTGGACTT,-0.07

row,Sequence,relative binding free energy [kcal/mol]
1,GATGACACGTGTAGGT,0.17
2,AGTATCACGTGGGAAT,0.14
3,TGTGGCACGTGTTACG,-0.16
4,GTTTGCACGTGCGTGT,0.05
5,TCTGTCACGTGCGGTG,-0.14
6,GAGCTCACGTGGAATG,0.53
7,CGATGCACGTGTGGTT,0.04
8,GATGGCACGTGCGTTG,-0.07
9,GGATTCACGTGCTGTT,0.39
10,AGTTACACGTGTGGCT,0.27
11,GGCGTCACGTGGGTTG,0.05
12,TGATTCACGTGGGTAT,0.15
13,AATGGCACGTGAGCGT,0
14,CGGTGCACGTGGAAAA,0.23
15,CTGTGCACGTGCCGGG,-0.15
16,GTGGACACGTGAATAG,0.25
17,GTTTTCACGTGTCAGG,0.29
18,GGGGGCACGTGCGACT,-0.11
19,GTTGACACGTGTGGAA,0.08
20,ACGTACACGTGGAGGG,-0.02
21,AGAATCACGTGCGGAT,0.43
22,TTATGCACGTGTTACA,0.04
23,TAGCACACGTGTTGTT,-0.03

row,Sequence,relative binding free energy [kcal/mol]
1,GGAGACACGTGGAGGG,-0.01
2,GTACTCACGTGTTGAT,0.25
3,TCCTGCACGTGGGTTA,-0.09
4,AAGTTCACGTGTTGGG,0.31
5,GTGTTCACGTGCAGGA,0.19
6,GGTGCCACGTGGTTGA,-0.09
7,TGGTCCACGTGGGCTT,-0.05
8,CTAGGCACGTGGTGTC,-0.21
9,TTGGACACGTGGTTCG,0.03
10,TGAGACACGTGGGAGT,-0.09
11,ATAGTCACGTGTGTTC,-0.04
12,TTATGCACGTGTTAGC,0.06
13,TTGGTCACGTGCATGT,0.1
14,CTTGACACGTGGTTAA,-0.04
15,GGAATCACGTGATTTT,0.29
16,ATCGTCACGTGCGTGT,0.08
17,GTTTGCACGTGAAGGT,0.38
18,AGGCGCACGTGGCGTA,-0.22
19,GAGAGCACGTGTTGGT,-0.04
20,TTATGCACGTGGACTG,-0.08
21,AGGCTCACGTGTGCGG,0.06
22,TGGGGCACGTGCGTAT,-0.24
23,GGGTGCACGTGGGTGT,-0.12
